Several values for one entry are separate records, joined by “and”; a condition that tells them apart may be missing. Equal values may be shown once. About 1,200 (2.5%) of roughly 48,000 compounds were called active. About 2% were inconclusive and are not listed.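 How the source made its calls: active means activation of at least 60% and not above a set upper limit (about 1 call in 100 departs from these limits); inconclusive means activation of 40% to 60%, or above that upper limit; inactive means activation under 40%.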 Some of the results follow.

Sequence of UniProt O75388 (O75388 whole entry, looked up): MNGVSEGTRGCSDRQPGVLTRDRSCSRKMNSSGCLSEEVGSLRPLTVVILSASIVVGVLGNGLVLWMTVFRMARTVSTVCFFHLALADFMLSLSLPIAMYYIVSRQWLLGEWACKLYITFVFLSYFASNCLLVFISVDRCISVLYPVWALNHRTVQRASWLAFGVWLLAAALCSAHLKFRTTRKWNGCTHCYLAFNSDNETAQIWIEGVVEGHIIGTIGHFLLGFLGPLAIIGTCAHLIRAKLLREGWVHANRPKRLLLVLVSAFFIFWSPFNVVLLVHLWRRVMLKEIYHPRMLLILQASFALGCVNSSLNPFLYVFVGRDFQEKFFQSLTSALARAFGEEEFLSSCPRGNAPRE

The target in this assay is Probable G-protein coupled receptor 32 (Homo sapiens) (UniProt O75388). As to the kind of experiment: qHTS for Agonists of Human Resolvin D1 Receptor DRV1. Further: 0% is about no effect. Particulars: CHO-K1 GPR32 beta-arrestin PathHunter luminescence, 90 min; at 76.9 µM; active compounds read high; zero percent set by DMSO-only wells. Summed up:
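Cells are plated overnight, treated with compounds in DMSO for 90 minutes at 37 °C, and developed with PathHunter detection reagent for 1 hour before luminescence is read; signal reflects beta-arrestin binding to GPR32 in engineered CHO-K1 cells.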
(qHTS replaces the single test concentration by a dilution series.)
`Cc1ccccc1OC(=O)c1snnc1C`: the activation is inactive: 14.1%.

Regarding `O=C(NCc1ccc(Cl)cc1)c1ccc(CSCc2cccc(Cl)c2)o1`, the activation is inactive: -2.25%. `O=C(Cc1ccccc1)N(Cc1cccnc1)c1nc2c(F)cccc2s1`: the activation was inactive: -16.8%. For the compound `O=C(Nc1ccc(Cl)cc1F)c1oc(=O)c2ccccc2c1-c1ccccc1`, the activation is inactive: -8.69%. Consider `CCOc1ccccc1NC(=O)CSc1nc2c(c(=O)[nH]1)CCC2`, for which the activation is inactive: 28.6%.

Take `COc1ccc(OCc2nc3ccccc3n2C(C)c2ccccc2)cc1` (stereo unspecified): the activation was inactive: -21%. Take `Cc1ccnc(NS(=O)(=O)c2ccc(NC(=O)C(C)(C)Oc3ccc(Cl)cc3)cc2)n1`: the activation is inactive: 19.8%.

On to `CCOc1cccc2cc(-c3cn4c(n3)sc3cc(C)ccc34)c(=O)oc12`, for which the activation was inactive: -10.3%. The value for `Cc1ccc(OCC(=O)Nc2cccc(OCc3cc(=O)n4ccccc4n3)c2)cc1C` was inactive: -7.84%; that for `Cc1cc(C)c2c(CC(=O)Nc3ccc(S(=O)(=O)N4CCCC(C)C4)cc3)coc2c1` (stereo unspecified) was inactive: -18.3%. The value for `Nc1nc(Nc2cccc(C(F)(F)F)c2)sc1C(=O)c1ccccc1` was inactive: 1.17%. Regarding `CCC(C(=O)Nc1ccc(C(=O)OC)cc1)n1nc(-c2ccc(C)cc2)c2c(c1=O)CCCC2` (stereo unspecified), the activation is inactive: 2.74%. The value for `C=C(C)Cn1c(SCC(=O)c2ccc(OC)cc2)nc2sc3c(c2c1=O)CCCC3` was inactive: -7.56%. The value for `CCOc1cc(C2Nc3ccccc3-c3nnc(SCc4ccccc4)nc3O2)ccc1OC` (stereo unspecified) was inactive: -0.875%; that for `C#CCn1c(COc2ccccc2C)nc2ccccc21` was inactive: 7.69%; that for `COc1cccc(CNC(=O)c2cc3cccc4c3n2CC(C)S4)c1OC` (stereo unspecified) was inactive: -16.1%. With `Cc1ccc(-c2noc(-c3ccc(N4CCC(C)CC4)c([N+](=O)[O-])c3)n2)cc1`, the activation was inactive: 9.34%. As for `Cc1ccc(-n2cc(-c3ccccc3)c3c(NC4CCCC4)ncnc32)cc1`, the figure is inactive: -29.9%. Turning to `COc1cc2c(=O)c(S(=O)(=O)c3ccc(F)cc3)cn(Cc3ccccc3C)c2cc1OC`, the activation is inactive: 17.1%. As for `CCN(Cc1ccccc1)C(=O)C1CCN(c2ncnc3c2nc2n3CCCCC2)CC1`, the figure is inactive: -11.7%; as for `COc1cc(OC)c(OC)cc1CNCCSc1nnnn1-c1ccccc1`, inactive: 3.65%.

In the case of `Cn1c(CNC(=O)CSc2n[nH]c(-c3ccccc3Cl)n2)nc2ccccc21`, the activation was inactive: 0.833%. The value for `Cc1cccc(N(C)C(=O)CN2C(=O)COc3ccc(S(=O)(=O)N4CCCCCC4)cc32)c1` was inactive: -37%; that for `CCOc1ccccc1NC(=O)CCS(=O)(=O)c1cccc2nsnc12` was inactive: -5.68%. As to `Cc1c2cnn(CC(=O)N3CCN(c4ccccc4)CC3)c(=O)c2c(C)n1Cc1ccc(F)cc1`, the activation was inactive: -3.34%. Take `Cc1ccc(C)c(Cn2c(C(C)NC(=O)c3ccc(F)cc3)nc3ccccc32)c1` (stereo unspecified): the activation is inactive: -14.8%. The value for `CCN(c1ccccc1)S(=O)(=O)c1cc(-c2onc(C)c2C)ccc1OC` was inactive: -24.9%. For `O=C1CC(c2ccccc2)Cc2[nH]c(=O)c(C(=O)Nc3ccc(OC(F)(F)F)cc3)cc21` (stereo unspecified), the activation was inactive: 8.74%. The value for `Cc1cccc(N2CCN(C(=O)C3CCCN(S(=O)(=O)c4cccc5nsnc45)C3)CC2)c1C` (stereo unspecified) was inactive: -0.0496%; that for `COc1cccc(N2C(=O)C(CC(=O)Nc3ccc(Cl)cc3)N(Cc3ccc4c(c3)OCO4)C2=O)c1` (stereo unspecified) was inactive: -1.23%. As for `COc1ccc(N2CCN(C(=O)c3c(C)oc4ncnc(N5CCCCC5)c34)CC2)cc1`, the figure is inactive: -23.7%.

Regarding `CCOCCCNC(=O)C(c1ccccc1)N(Cc1cccs1)C(=O)c1ccc(NC(C)=O)cc1` (stereo unspecified), the activation is inactive: 4.1%. The value for `CCn1c(=O)c2sccc2n2c(CCCC(=O)N3CCN(c4ccc(OC)cc4)CC3)nnc12` was inactive: 3.43%; that for `CC(=O)Nc1ccc(/C=N/NC(N)=S)cc1` was inactive: -22.4%; that for `COCCn1c(CCC(=O)Nc2cc(C)ccc2C)nc2cccnc21` was inactive: -6.1%. As to `Cc1cccc(-c2noc(CCCC(=O)NCc3ccco3)n2)c1`, the activation was inactive: 2.53%.

As to `O=C(O)Cc1ccc(OCCNC[C@H](O)c2ccccc2)cc1`, the activation is inactive: -54.4%.

For `Cc1ccc(Nc2ncnc3c2cnn3-c2ccccc2)c(C)c1`, the activation is inactive: 20.5%.

As for `CC(C(=O)O)c1cccc(C(=O)c2ccccc2)c1` (stereo unspecified), the activation was inactive: 13% and inactive: 2.74%. As for `CCOc1ccc(S(=O)(=O)N2CCN(c3cc(Cl)ccc3Cl)CC2)c2ccccc12`, the figure is inactive: -0.36%; as for `O=c1[nH]c2ccc(NCc3ccc(-c4cccc(Cl)c4)o3)cc2[nH]1`, inactive: 8.55%; as for `CCOc1ccccc1CNC(=O)C1CCN(S(=O)(=O)c2cccc3nonc23)CC1`, inactive: 1.59%. The value for `Cn1c(=O)c2c(SCC(=O)N3CCc4ccccc43)nc(-c3cccc(F)c3)nc2n(C)c1=O` was inactive: -6.22%; that for `Cc1ccc(NC(=O)CN2C(=O)C(c3ccc(F)cc3)=NC23CCCCC3)c(C)c1` was inactive: -24.2%; that for `O=C(CCCCCn1c(=O)[nH]c2ccccc2c1=O)NCc1cccc(Cl)c1` was inactive: -17.7%. For `CCc1ccccc1NC(=O)C(CC)Sc1ncnc2c1sc1ccccc12` (stereo unspecified), the activation was inactive: -21.3%. Take `Cc1ccc(C(=O)c2cn(Cc3ccccc3C)c3nc(C)ccc3c2=O)cc1`: the activation was inactive: -12.2%. The value for `Cc1ccccc1-c1cc2nccc(-c3cc(Cl)ccc3O)n2n1` was inactive: -15.8%; that for `Cc1ccc(NC(=O)Cn2c(=O)n(Cc3ccc4c(c3)OCO4)c(=O)c3ccccc32)cc1` was inactive: -23.8%. As to `COc1ccc(-c2cn3c(n2)sc2cc(C(=O)NCc4cccc(F)c4)ccc23)cc1`, the activation was inactive: -1.18%.

Turning to `Cc1oc2c(cc(NS(=O)(=O)c3ccc(Cl)cc3)c3ccccc32)c1C(=O)OCc1ccccc1`, the activation was inactive: 19.1%. Regarding `CCCc1noc(-c2ccc(NCc3ccc(C)cc3)c([N+](=O)[O-])c2)n1`, the activation is inactive: -0.499%.

As for `CCCc1cnc2c(c1SCc1cccc(F)c1)c(=O)n(C)c(=O)n2C`, the activation is inactive: -14.4%. The value for `Cc1nc(C)c(CCNS(=O)(=O)c2ccc(F)cc2)s1` was inactive: 3.15%; that for `Cc1ccc(NC(=O)CN2C(=O)COc3ccc(S(=O)(=O)NC4CCCC4)cc32)c(Cl)c1` was inactive: -25.6%. Turning to `CCc1ccc(Nc2nnc(-n3nc(C)cc3C)c3ccccc23)cc1`, the activation was inactive: -12.5%.

Consider `COc1ccc(CNC(=O)c2cnc3sc(N4CCCC4)nn3c2=O)c(OC)c1`, for which the activation was inactive: -13%. The value for `COc1cc(C(O)CO)ccc1OS(=O)(=O)O` (stereo unspecified) was inactive: 13.7%.

With `CCCCNC(=O)CSc1nc2cc3c(cc2c(=O)n1CCCCCC(=O)NCc1ccc(OC)cc1)OCO3`, the activation is inactive: -8.63%. Regarding `COc1ccc(CNC(=O)Cc2csc3nc(-c4ccc(F)cc4)cn23)cc1`, the activation is inactive: 2.84%. As to `Cc1ccccc1C(=O)NCCc1sc(-c2ccc(Cl)cc2)nc1C`, the activation is inactive: 2.78%. The value for `Cc1ccccc1NC(=O)CCN1C(=O)c2ccccc2Sc2ncccc21` was inactive: -8.12%; that for `COc1cccc(NC(=O)CCc2c(C)nc3ncnn3c2C)c1` was inactive: -1.01%; that for `COc1ccc(N(Cc2cccs2)C(=O)Nc2cccc(Cl)c2)cc1` was inactive: -34.6%. As for `CCOC(=O)C1CCCN(S(=O)(=O)c2ccc3c(c2)oc(=O)n3C)C1` (stereo unspecified), the figure is inactive: -25.8%; as for `COc1ccc(C2CC(=O)N(CC(=O)Nc3ccc(C)c(Cl)c3)c3ccccc3S2)cc1OC` (stereo unspecified), inactive: -23.8%; as for `CCOc1ccc(NC(=O)C(=O)NCC(c2cccnc2)N2CCc3ccccc32)cc1` (stereo unspecified), inactive: 22.4%.

For `COc1ccc(-c2nc(SCC(=O)NC3CCCC3)c(-c3ccc(C)cc3)[nH]2)cc1OC`, the activation was inactive: -14.7%. For the compound `COc1cc(OC)c(NC(=O)c2cn(C3CCCC3)c(=O)c3c2c2ccccc2n3C)cc1Cl`, the activation is inactive: 4.61%.

Take `Cc1cc(C)c(S(=O)(=O)Nc2ccc3oc4c(c3c2)C(=O)CC(C)(C)C4)cc1C`: the activation was inactive: -5.77%. As for `COc1ccc(-c2cnc(C)o2)cc1S(=O)(=O)Nc1ccc(F)cc1F`, the figure is inactive: -4.73%. As for `CN1CCN(C(=O)Cn2ncc3c4ccccc4n(Cc4ccc(F)cc4)c3c2=O)CC1`, the figure is inactive: -12.8%; as for `O=C(c1ccc(Br)cc1)N(Cc1cccs1)c1ccc(F)cc1`, inactive: 29.9%. As for `CN(C)CCCNC(=O)C(=O)NCC(c1ccc2c(c1)OCO2)N1CCOCC1` (stereo unspecified), the figure is inactive: -6.76%; as for `Cc1nc2nc(SCC(=O)Nc3ccccc3Cl)nn2c(C)c1Cc1ccccc1`, inactive: -23.8%. `COc1cc2c(cc1OC)C(COc1ccc(F)cc1)N(C(=O)c1cccc(F)c1)CC2` (stereo unspecified): the activation was inactive: -3.17%. The value for `CCOCCn1ccc2c(OCC(=O)Nc3cccc([N+](=O)[O-])c3)cccc2c1=O` was inactive: 2.78%. As for `CCCOc1ccc(C2C(=O)N(C3CCCCCC3)CC(=O)N2CCC2=CCCCC2)cc1OC` (stereo unspecified), the figure is inactive: -9.81%.

As for `Cc1cccn2c(=O)c(/C=C(\C#N)c3nc4ccccc4s3)c(Oc3ccc(F)cc3)nc12`, the activation is inactive: -1.44%. For the compound `Cc1cc(N(CCO)Cc2ccccc2)n2nc(-c3ccc(C(C)(C)C)cc3)nc2n1`, the activation is inactive: 3.24%. As for `COc1cccc(C(=O)Nc2ccccc2OCc2cc(=O)n3ccccc3n2)c1`, the activation is inactive: -10.5%. For the compound `Cc1noc(/C=C/c2cccs2)c1S(=O)(=O)N1CCC(C(=O)NCc2ccc(Cl)cc2)CC1`, the activation is inactive: -16.8%. As to `COc1ccccc1CN1CCNC(=O)C1=O`, the activation was inactive: 7.98%.

As to `COc1ccc(N(Cc2nnc3n2CCCCC3)C(=O)Nc2cccc(C)c2)cc1Cl`, the activation was inactive: 4.43%.

Turning to `CCn1c(=N)n(CC(O)COc2ccccc2)c2ccccc21` (stereo unspecified), the activation was inactive: 8.75%. In the case of `COc1ccccc1NC(=O)Cn1c(=O)n(-c2cccc(C)c2)c(=O)c2c1c1cc(C)ccc1n2C`, the activation is inactive: -14.3%.

These data come from PubChem BioAssay AID1346428 (National Center for Advancing Translational Sciences (NCATS), 2018).
